# Experimental data as given in the supplement of paper PMC8728848.
# The list shows a part of the results.
# B1: Epa13 (Candida glabrata) (protein)
# chain: MGSSHHHHHHSSGLVPRGSHMASDSSENGYAHGCSPSIRAKLKPGLSMEIYSYALRPTDDHCWDSAYLDPMFPRTGYLTHKLLGKAEGIIGPLNFLAKNPACIPAVSTLPLAFHFPKPFTITNFTMLLYGYLSPKKTGKYTFKLLADDLLLMNFGADNAFDCCSHDATKDNIGEYVAYSVWPGVNKNVTVYLESGIYYPLRLFFNNRDAIAQLDFAYYFNDSPIRQTDFSGMFFSIPDSVKCPANI
# Columns and labels:
# Assay in all cases: glycan array binding signal (z-score within array); higher = stronger binding
# Conditions in all cases: glycan notation: IUPAC condensed, linker removed
# [1] = target: Fuc(a1-2)Gal(b1-4)GlcNAc(b1-3)Gal(b1-4)GlcNAc(b1-3)Gal(b1-4)GlcNAc
# How it was run: (§1)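 Columns mapping to the same glycan were averaged after glycan names were converted to IUPAC-condensed notation. The data come from 3228 arrays in the Consortium for Functional Glycomics database, limited to those with an available protein sequence. Binding is reported as a within-array Z-score averaged across arrays of one protein sequence and across linkers.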
# [2] = target: Fuc(a1-2)Gal(b1-4)GlcNAc(b1-3)GalNAc
# How it was run: as §1
# [3] = target: Fuc(a1-2)Gal(b1-4)GlcNAc(b1-3)[Fuc(a1-2)Gal(b1-4)GlcNAc(b1-6)]GalNAc
# How it was run: as §1
# [4] = target: Fuc(a1-2)Gal(b1-4)GlcNAc(b1-3)[Fuc(a1-3)[Gal(b1-4)]GlcNAc(b1-6)]Gal(b1-4)Glc
# How it was run: as §1
# [5] = target: Fuc(a1-2)Gal(b1-4)GlcNAc(b1-6)GalNAc
# How it was run: as §1
# [6] = target: Fuc(a1-2)Gal(b1-4)GlcNAc6S
# How it was run: as §1
# [7] = target: Fuc(a1-2)Gal(b1-4)[Fuc(a1-3)]GlcNAc
# How it was run: as §1
# [8] = target: Fuc(a1-2)Gal(b1-4)[Fuc(a1-3)]GlcNAc(b1-2)Man(a1-3)[Fuc(a1-2)Gal(b1-4)[Fuc(a1-3)]GlcNAc(b1-2)Man(a1-6)]Man(b1-4)GlcNAc(b1-4)[Fuc(a1-6)]GlcNAc
# How it was run: as §1
# [9] = target: Fuc(a1-2)Gal(b1-4)[Fuc(a1-3)]GlcNAc(b1-2)[Fuc(a1-2)Gal(b1-4)[Fuc(a1-3)]GlcNAc(b1-4)]Man(a1-3)[Fuc(a1-2)Gal(b1-4)[Fuc(a1-3)]GlcNAc(b1-2)Man(a1-6)]Man(b1-4)GlcNAc(b1-4)GlcNAc
# How it was run: as §1
# [10] = target: Fuc(a1-2)Gal(b1-4)[Fuc(a1-3)]GlcNAc(b1-3)Gal(b1-4)[Fuc(a1-3)]GlcNAc
# How it was run: as §1
# [11] = target: Fuc(a1-2)Gal(b1-4)[Fuc(a1-3)]GlcNAc(b1-3)Gal(b1-4)[Fuc(a1-3)]GlcNAc(b1-3)Gal(b1-4)[Fuc(a1-3)]GlcNAc
# How it was run: as §1
# [12] = target: Fuc(a1-2)Gal(b1-4)[Fuc(a1-3)]GlcNAc(b1-3)GalNAc
# How it was run: as §1
# [13] = target: Fuc(a1-2)Gal(b1-4)[Fuc(a1-3)]GlcNAc(b1-3)[Neu5Ac(a2-6)Gal(b1-4)GlcNAc(b1-6)]Gal(b1-4)Glc
# How it was run: as §1
# [14] = target: Fuc(a1-2)Gal3S(b1-4)GlcNAc
# How it was run: as §1
# [15] = target: Fuc(a1-2)Gal6S(b1-3)GlcNAc
# How it was run: as §1
# [16] = target: Fuc(a1-2)Gal6S(b1-3)GlcNAc6S
# How it was run: as §1
# Fuc(a1-2)Gal6S(b1-4)Glc = target: Fuc(a1-2)Gal6S(b1-4)Glc
# How it was run: as §1
# [17] = target: Fuc(a1-2)Gal6S(b1-4)Glc6S
# How it was run: as §1
# Fuc(a1-2)[Gal(a1-3)]Gal = target: Fuc(a1-2)[Gal(a1-3)]Gal
# How it was run: as §1
# [18] = target: Fuc(a1-2)[Gal(a1-3)]Gal(b1-3)GalNAc
# How it was run: as §1
# [19] = target: Fuc(a1-2)[Gal(a1-3)]Gal(b1-3)GalNAc(b1-3)Gal(a1-4)Gal(b1-4)Glc
# How it was run: as §1
# [20] = target: Fuc(a1-2)[Gal(a1-3)]Gal(b1-3)GlcNAc
# How it was run: as §1
# [21] = target: Fuc(a1-2)[Gal(a1-3)]Gal(b1-3)GlcNAc(b1-2)Man(a1-3)[Fuc(a1-2)[Gal(a1-3)]Gal(b1-3)GlcNAc(b1-2)Man(a1-6)]Man(b1-4)GlcNAc(b1-4)GlcNAc
# How it was run: as §1
# [22] = target: Fuc(a1-2)[Gal(a1-3)]Gal(b1-3)GlcNAc(b1-2)Man(a1-3)[Fuc(a1-2)[Gal(a1-3)]Gal(b1-3)GlcNAc(b1-2)Man(a1-6)]Man(b1-4)GlcNAc(b1-4)[Fuc(a1-6)]GlcNAc
# How it was run: as §1
# [23] = target: Fuc(a1-2)[Gal(a1-3)]Gal(b1-3)GlcNAc(b1-3)GalNAc
# How it was run: as §1
# [24] = target: Fuc(a1-2)[Gal(a1-3)]Gal(b1-3)GlcNAc(b1-6)GalNAc
# How it was run: as §1
# [25] = target: Fuc(a1-2)[Gal(a1-3)]Gal(b1-4)Glc
# How it was run: as §1
# [26] = target: Fuc(a1-2)[Gal(a1-3)]Gal(b1-4)GlcNAc
# How it was run: as §1
# [27] = target: Fuc(a1-2)[Gal(a1-3)]Gal(b1-4)GlcNAc(b1-2)Man
# How it was run: as §1
# [28] = target: Fuc(a1-2)[Gal(a1-3)]Gal(b1-4)GlcNAc(b1-2)Man(a1-3)[Fuc(a1-2)[Gal(a1-3)]Gal(b1-4)GlcNAc(b1-2)Man(a1-6)]Man(b1-4)GlcNAc(b1-4)GlcNAc
# How it was run: as §1
# [29] = target: Fuc(a1-2)[Gal(a1-3)]Gal(b1-4)GlcNAc(b1-2)Man(a1-3)[Fuc(a1-2)[Gal(a1-3)]Gal(b1-4)GlcNAc(b1-2)Man(a1-6)]Man(b1-4)GlcNAc(b1-4)[Fuc(a1-6)]GlcNAc
# How it was run: as §1
# [30] = target: Fuc(a1-2)[Gal(a1-3)]Gal(b1-4)GlcNAc(b1-3)GalNAc
# How it was run: as §1
# [31] = target: Fuc(a1-2)[Gal(a1-3)]Gal(b1-4)GlcNAc(b1-3)[Fuc(a1-2)[Gal(a1-3)]Gal(b1-4)GlcNAc(b1-6)]GalNAc
# How it was run: as §1
# [32] = target: Fuc(a1-2)[Gal(a1-3)]Gal(b1-4)GlcNAc(b1-6)GalNAc
# How it was run: as §1
# [33] = target: Fuc(a1-2)[Gal(a1-3)]Gal(b1-4)[Fuc(a1-3)]Glc
# How it was run: as §1
# [34] = target: Fuc(a1-2)[Gal(a1-3)]Gal(b1-4)[Fuc(a1-3)]GlcNAc
# How it was run: as §1
# [35] = target: Fuc(a1-2)[Gal(a1-3)]Gal(b1-4)[Fuc(a1-3)]GlcNAc(b1-3)GalNAc
# How it was run: as §1
binder,measurement,setting,value
B1,glycan array binding signal (z-score),[1],-0.321
same,glycan array binding signal (z-score),[2],-0.185
same,glycan array binding signal (z-score),[3],-0.139
same,glycan array binding signal (z-score),[4],-0.523
same,glycan array binding signal (z-score),[5],-0.177
same,glycan array binding signal (z-score),[6],-0.047
same,glycan array binding signal (z-score),[7],-0.412
same,glycan array binding signal (z-score),[8],-0.019
same,glycan array binding signal (z-score),[9],0.455
same,glycan array binding signal (z-score),[10],-0.395
same,glycan array binding signal (z-score),[11],-0.445
same,glycan array binding signal (z-score),[12],2.14
same,glycan array binding signal (z-score),[13],-0.526
same,glycan array binding signal (z-score),[14],-0.344
same,glycan array binding signal (z-score),[15],-0.027
same,glycan array binding signal (z-score),[16],0.747
same,glycan array binding signal (z-score),Fuc(a1-2)Gal6S(b1-4)Glc,-0.561
same,glycan array binding signal (z-score),[17],-0.13
same,glycan array binding signal (z-score),Fuc(a1-2)[Gal(a1-3)]Gal,-0.069
same,glycan array binding signal (z-score),[18],-0.035
same,glycan array binding signal (z-score),[19],-0.325
same,glycan array binding signal (z-score),[20],-0.328
same,glycan array binding signal (z-score),[21],-0.021
same,glycan array binding signal (z-score),[22],-0.414
same,glycan array binding signal (z-score),[23],0.092
same,glycan array binding signal (z-score),[24],0.078
same,glycan array binding signal (z-score),[25],-0.047
same,glycan array binding signal (z-score),[26],-0.32
same,glycan array binding signal (z-score),[27],-0.224
same,glycan array binding signal (z-score),[28],-0.007
same,glycan array binding signal (z-score),[29],-0.357
same,glycan array binding signal (z-score),[30],-0.237
same,glycan array binding signal (z-score),[31],-0.258
same,glycan array binding signal (z-score),[32],0.058
same,glycan array binding signal (z-score),[33],-0.232
same,glycan array binding signal (z-score),[34],0.02
same,glycan array binding signal (z-score),[35],0.306
